# In PubChem BioAssay AID1745845 (National Center for Advancing Translational Sciences (NCATS), 2022):
# Out of some 360,000 compounds screened, about 2,600 (0.72%) were called active. The inconclusive results got no clear call from the source; some entries with a clear call stand among them for comparison. The call rests on the fitted dose curve; in most records, active means well fitted inhibition curve with a large enough effect; inconclusive means small, poorly fitted or top-dose-only effect; inactive means no such curve, though single readings can be large or run the other way. Where the call is inconclusive, the potency comes from a doubtful curve fit.
# Test: Primary qHTS for Inhibitors of ATXN expression; further: nearly all actives have a fitted effect of over 55% in size
# Settings: HEK-293 ATXN2-luciferase reporter, luminescence, 24 h; activity change, negative = inhibition: at 57 µM (top of the series)
# Outline: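 qHTS (up to 57 uM final) was run with 24 h compound exposure of reporter cells at 37 °C. Each well was multiplexed: SteadyGlo luminescence measured ATXN2-luciferase expression after a fluorogenic Gly-Phe-AFC viability readout (25 uM final).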
# On the % scale 0 is the no-effect control and ±100 the full control effect; potency means the concentration at half of the fitted maximal effect; tags describe the fitted curve by direction and shape.
Structure (SMILES),Potency,"activity change, negative = inhibition"
Oc1ccccc1/C=N/Nc1nc2ccccc2o1,"inconclusive: 8.91 µM [inhibitor, full curve]",
COc1cc(CN2C[C@@H](CO)O[C@@H](n3cnc4c(N5CCN(c6ccccc6)CC5)ncnc43)C2)cc(OC)c1OC,"inconclusive: 15.8 µM [inhibitor, partial curve]",
COc1ccc(OC)c(/C=C/C(=O)N(C)CC(=O)Nc2cc(C)ccc2C)c1,,inactive: -21.8%
Cc1ccc(-c2nn3c(C)nnc3c3ccccc23)cc1S(=O)(=O)N(C)CCO,,inactive: 25.1%
CC(=O)Nc1ccc(NC2=Nc3ccccc3N3C2=Nc2c(c(C)nn2-c2ccccc2)C3c2ccccc2)cc1 (stereo not given),active: 7.94 µM,
CCc1ccc(C(=O)COC(=O)c2cc([N+](=O)[O-])ccc2NCCO)cc1,,inactive: -23.3%
C=C(C)CNC(=S)N/N=C1\CCCCc2ccccc21,"inconclusive: 1.5 µM [inhibitor, single point]",
Cc1cc(C)c(S(=O)(=O)c2ccccc2C)c(SCC(C)C)n1,,inactive: 3.29%
CS(=O)(=O)N(Cc1ccc(Cl)cc1)c1ccc(C(=O)NCCC2=CCCCC2)cc1,"inconclusive: 39.8 µM [inhibitor, single point]",
O=C(CCC(=O)Nc1cc(C(F)(F)F)ccc1Cl)N/N=C\c1cc([N+](=O)[O-])ccc1O,"inconclusive: 25.1 µM [inhibitor, partial curve]",
CC(=O)N1c2ccc(S(=O)(=O)NCC3CCC(C(=O)Nc4ccc(C)cn4)CC3)cc2CC1C (stereo not given),"inconclusive: 7.08 µM [inhibitor, partial curve, poor fit]",
Cc1nn(-c2ccccc2)c(OC(=O)c2ccc(F)cc2)c1S(=O)(=O)c1ccccc1,,inactive: -6.36%
COc1cc2[nH]c(=S)n(C3CCN(Cc4ccccc4)CC3)c(=O)c2cc1OC,,inactive: -21.3%
Cc1ccc(NC(=O)CSc2nc3ncc(Br)cc3[nH]2)cc1C,"inconclusive: 15.8 µM [inhibitor, partial curve, poor fit]",
O=C(CCC(=O)OCc1ccc([N+](=O)[O-])cc1)Nc1ccccc1Cl,,inactive: -9.33% [at 11.3 µM]
O=c1[nH]cc(C=NNc2ccccc2)c(=O)[nH]1,"inconclusive: 1.78 µM [inhibitor, partial curve, poor fit]",
O=C(Nc1ccc2c(c1)OCCO2)c1cccc2nc3ccccc3nc12,"inconclusive: 25.1 µM [inhibitor, single point]",
O=C1CCC(OCc2ccccc2)CCN1[C@H](CSc1ccccc1)Cc1ccccc1 (stereo not given in full),,inactive: -1.22%
Cc1ccc(C)c(NC(=O)CN(C)C(=O)c2ccccc2OCc2ccc(Cl)cc2)c1,,inactive: 0%
CN(C)CCCNc1oc(-c2ccc(Cl)cc2)nc1S(=O)(=O)c1ccccc1,"inconclusive: 17.8 µM [inhibitor, single point]",
CCn1c2ccccc2c2cc(NC(=O)C(C)Oc3ccccc3)ccc21 (stereo not given),,inactive: -3.35%
O=C1/C(=C/c2cccnc2)CCC/C1=C\c1cccnc1,active: 17.8 µM,

Structure (SMILES),Potency,"activity change, negative = inhibition"
COc1cccc(/C=N/NC(=O)c2ccc(=O)n(C)c2)c1O,active: 15 µM,
O=C(Nc1ccn(CCCNCC(c2ccccc2)c2ccccc2)c(=O)n1)OCc1ccccc1,"inconclusive: 28.2 µM [inhibitor, single point]",
S=c1[nH]nc(-c2ccc(Cl)cc2)n1Cc1ccccc1,,inactive: -21%
CCCCC[C@H](C)N1C[C@@H](COCc2ccccc2)Oc2cc(N3CCC[C@H]3CO)ccc2S1(=O)=O,"inconclusive: 28.2 µM [inhibitor, partial curve, poor fit]",
N#Cc1nc(COc2ccc(-c3ccccc3)cc2)oc1NCCCN1CCOCC1,active: 31.6 µM,
CC1(C)CCC(CN2CCN(c3ccc(C(=O)NS(=O)(=O)c4ccc(NCC5CCOCC5)c([N+](=O)[O-])c4)c(Oc4cnc5[nH]ccc5c4)c3)CC2)=C(c2ccc(Cl)cc2)C1,"inconclusive: 38.5 µM [inhibitor, single point]",
CCC(C)NC(=O)Cn1c(=O)n(-c2ccc(Cl)c(Cl)c2)c(=O)c2c(C)c(C(=O)N(CC)CC)sc21 (stereo not given),,inactive: 7.93%
COc1ccc(-c2noc(N3CCC(C(=O)Nc4ccc(F)cc4F)CC3)n2)cc1,"inconclusive: 8.91 µM [inhibitor, partial curve, poor fit]",
CCN(c1ccccc1)S(=O)(=O)c1ccc(OC)c(NC(=O)CNCCc2ccccc2)c1,"inconclusive: 20 µM [inhibitor, single point]",
NC(=O)CC(NC(=O)Cc1ccc(Cl)cc1)c1ccc(NC2CCCC2)c([N+](=O)[O-])c1 (stereo not given),"inconclusive: 31.6 µM [inhibitor, single point]",
CC(C)(C)c1ccc(C2C(C(=O)c3ccco3)=C(O)C(=O)N2CC2CCCO2)cc1 (stereo not given),,inactive: 0.0401%
O=C(COc1cccc(Cl)c1)Nc1ccc(N2CCOCC2)cc1,,inactive: 0%
Cc1ccc(Cl)cc1N1CCN(C(=O)C2CCN(c3nnc(-n4cccc4)s3)CC2)CC1,"inconclusive: 6.31 µM [inhibitor, partial curve, poor fit]",
Cc1ccc(/C=C2\SC(=S)N(CCCC(=O)N3CCOCC3)C2=O)cc1,"inconclusive: 39.8 µM [inhibitor, single point]",
CS(=O)(=O)c1cccc(CNc2nc(Nc3ccc4c(c3)CCC(=O)N4)ncc2C(F)(F)F)c1,"inconclusive: 24.3 µM [inhibitor, partial curve]",
COc1ccc(-c2nn(-c3ccccc3)cc2C(=O)NC(=S)NNC(=O)c2ccncc2)cc1,"inconclusive: 37.7 µM [inhibitor, single point]",
O=C(CSc1nnc(Cc2csc(Nc3cccc(Cl)c3)n2)o1)N1CCc2ccccc21,"inconclusive: 10 µM [inhibitor, partial curve, poor fit]",
O=C(/C=C/c1ccccc1)c1ccc(NC2=NCCCS2)cc1,,inactive: 57.1%
COc1ccc(Nc2nnc(SCC(=O)/C=C3/N(C)c4ccccc4C3(C)C)s2)cc1,"inconclusive: 10 µM [inhibitor, partial curve, poor fit]",
CCOC(=O)c1c(C)[nH]c(C(=O)OCC(=O)Nc2sccc2C(N)=O)c1C,"inconclusive: 20 µM [inhibitor, single point]",
CCOC(=O)Cc1csc(N/N=C/c2ccc(C(F)(F)F)cc2)n1,"inconclusive: 1.19 µM [inhibitor, full curve]",
CN1CCC[C@H]1CCNc1ccc2c(=O)c3ccccc3n(C)c2c1,"inconclusive: 25.1 µM [inhibitor, single point]",

Structure (SMILES),Potency,"activity change, negative = inhibition"
O=C(/C=C/c1cccc([N+](=O)[O-])c1)NC(=S)Nc1cccc(NC(=O)c2ccccc2Cl)c1,"inconclusive: 20 µM [inhibitor, partial curve, poor fit]",
CN(CCOc1ccc(Cl)cc1)C(=O)c1cccc(S(=O)(=O)N2CCN(c3ccc(F)cc3)CC2)c1,"inconclusive: 1.78 µM [inhibitor, full curve, poor fit]",
COc1cc2cnc(-c3ccccc3)c(-c3cccc(C(F)(F)F)c3)c2cc1OC,"inconclusive: 39.8 µM [inhibitor, single point]",
CCn1c(=O)sc2cc(NC(=O)c3cccc(OC)c3)ccc21,,inactive: 11.9%
COc1cc(NC(=O)CSc2nc(C3CC3)nc3ccccc23)cc(OC)c1,"inconclusive: 39.8 µM [inhibitor, single point]",
COc1cccc(C=C2SC(=S)NC2=O)c1,,inactive: 16.6%
C=C1C(=O)c2sccc2C(c2ccc(OC)c(OC)c2)C1COC(C)=O (stereo not given),"inconclusive: 5.32 µM [inhibitor, full curve, poor fit]",
CSCc1nnc(NC(=O)c2ccc(S(=O)(=O)N3CCCCC3C)cc2)o1 (stereo not given),"inconclusive: 37.7 µM [inhibitor, single point]",
O=C1c2ccccc2NC(c2ccc(-c3cccc(F)c3)o2)N1O (stereo not given),"inconclusive: 39.8 µM [inhibitor, single point]",
CCc1nc2ccc(C(=O)NC3CCN(Cc4ccccc4)CC3)cn2c1N(C)Cc1ccc(N(C)C)cc1,"inconclusive: 31.6 µM [inhibitor, single point]",
COc1cccc2cc(C(=O)OC(C)C(=O)c3ccc(C)cc3)c(=O)oc12 (stereo not given),,inactive: 4.62%
COc1ccc(-c2cc(N)n(S(=O)(=O)c3c(F)c(F)c(F)c(F)c3F)n2)cc1OC,active: 7.94 µM,
CN1CCN(C(=O)c2cc3nc(-c4ccc(F)cc4)cc(C(F)(F)F)n3n2)CC1,,inactive: -14.5%
C[C@@H]1CN([C@@H](C)CO)C(=O)c2cccc(NC(=O)Nc3ccccc3)c2O[C@H]1CN(C)C(=O)Nc1cccc2ccccc12,"inconclusive: 39.8 µM [inhibitor, partial curve, poor fit]",
Cc1[nH]n(-c2ccccc2)c(=O)c1/C=N/N1C(=O)c2ccc3c4c(ccc(c24)C1=O)CC3,"inconclusive: 37.7 µM [inhibitor, single point]",
CCC1CCCCN1CCCNC(=O)c1ccc2c(c1)N(Cc1ccc(Cl)cc1)C(=O)c1ccccc1S2(=O)=O (stereo not given),active: 28.2 µM,
O=c1[nH]sc2ccccc12,"inconclusive: 16.8 µM [inhibitor, partial curve, poor fit]",
CC(=O)N1CCC(O)(c2cccc(C(F)(F)F)c2)CC1,,inactive: 0.0405%
CC(C)(C)OC(=O)N1CCC(NC(=O)c2[nH]cnc2C(=O)Nc2ccccc2)CC1,"inconclusive: 31.6 µM [inhibitor, single point]",
Cc1cc(OCc2cccc(Cl)c2)c(C)cc1CN1CCOCC1,,inactive: 1.29%
Cc1ccc(/C=C/C(O)=C2/C(=O)N(C)C3(C)CC2c2ccccc2O3)cc1 (stereo not given),"inconclusive: 25.1 µM [inhibitor, single point]",
